# Test results taken from the supplement of paper PMC3334620.
# Over roughly 33,000 sequences, “E-score (-0.5 to 0.5)” has its median near -0.017; the highest 2% begin near 0.3. The list shows a part of the results.
# Biological target: T1, Sut1 (UniProt P53032)
# T1 sequence: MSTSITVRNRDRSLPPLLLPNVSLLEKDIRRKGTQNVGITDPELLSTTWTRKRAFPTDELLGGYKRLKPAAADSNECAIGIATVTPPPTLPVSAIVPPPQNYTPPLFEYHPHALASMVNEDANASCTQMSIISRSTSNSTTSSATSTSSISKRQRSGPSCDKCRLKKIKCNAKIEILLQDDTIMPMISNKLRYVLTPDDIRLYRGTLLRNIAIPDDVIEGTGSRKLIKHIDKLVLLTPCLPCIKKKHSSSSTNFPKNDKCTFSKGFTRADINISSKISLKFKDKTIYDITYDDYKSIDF
# Experiment: PBM E-score (8-mer binding enrichment) (E-score (-0.5 to 0.5)); higher = stronger / more preferred TF binding; most listed sequences are background and not binding sites
# Conditions: protein concentration: 200 nM; construct: GST-full length
# How it was run: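 Full-length yeast transcription factors or their DNA-binding domains, GST-tagged and expressed with PURExpress, were applied at about 100-200 nM to universal all-10-mer Agilent arrays. These arrays had been made double-stranded by primer extension on fresh or once-stripped slides. Detection used fluorescent anti-GST, normalisation used masliner, and E-scores for ungapped eight-base words pooled with reverse complements came from the Universal PBM Analysis Suite.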
row,Sequence,PBM E-score
1,GAACACGC,0.0145
2,GTCCTAGA,-0.141
3,AAACCATG,0.0875
4,TGACGTCA,0.106
5,ACCTTTCA,-0.0164
6,ACGCGGCG,-0.0144
7,GACGATCC,0.0475
8,CTATGGGA,-0.139
9,AAGTGCCC,-0.156
10,CGAAGACC,0.0715
11,CTTTGAGC,-0.252
12,ATCCCCGG,0.261
13,CTCTTAAG,0.0727
14,AGTCGCCA,-0.232
15,CATCGTCG,-0.136
16,ACTGCACA,0.00582
17,ATGCCCAT,-0.157
18,GGGAAGAA,-0.0366
19,ATAGGTCG,-0.0667
20,ACACAAGG,0.0527
21,ATCCTGCG,-0.204
22,CATTATTC,0.231

row,Sequence,PBM E-score
1,TCCTTCCA,-0.243
2,GCACCCGC,-0.108
3,CTCACCGC,-0.0633
4,CGAATCGC,-0.224
5,AGGGTGAT,-0.0489
6,AGACAGCT,-0.176
7,AGTTAATA,0.331
8,CACGAATG,-0.0688
9,CATGACCG,-0.233
10,CTTGAGAC,-0.212
11,ATAGGTAA,0.0939
12,AGACCTCT,-0.183
13,ACGCCTTC,0.0371
14,CGCAAAAC,0.111
15,ACTGCACT,0.0273
16,ACCGGCGT,-0.155
17,ATGAATGC,0.0525
18,TCGCTACA,-0.341
19,CTCATAAC,-0.0626
20,ATGACAAT,0.198
21,GAATGCTC,-0.0221
22,CGCCTCTC,-0.324

row,Sequence,PBM E-score
1,CAGGCTGA,-0.248
2,CCACCAAC,0.0116
3,TAAAGACA,-0.033
4,ATCACAGG,-0.203
5,ACATGAAC,0.0435
6,TGCTCCAA,-0.015
7,ACGAGCTG,-0.00685
8,CCATAGGC,-0.307
9,CTTCTGAC,-0.0968
10,CAAGCGCA,0.0857
11,GTTCTGCA,-0.0955
12,ATACGTAG,-0.0444
13,GAGCATAA,0.135
14,AAATTTAA,0.318
15,AATTTCTG,0.187
16,ACTCAGCC,-0.258
17,CCGTGCTA,0.011
18,GTATTCAC,0.253
19,TCTCGTAA,0.0822
20,ATGCTACG,-0.161
21,AAACGTAC,0.0251
22,CCCAGTCG,-0.115

row,Sequence,PBM E-score
1,CTCTGAAC,-0.234
2,CGGATGAC,0.0105
3,CGCATTGA,-0.0303
4,ATTCAGGG,-0.155
5,CGCTTGAC,-0.0992
6,CGTATTAC,0.0591
7,GAGTTTAA,0.189
8,GACCCTAA,-0.0171
9,ACTTCTTC,0.22
10,GAGCAAGC,-0.194
11,AACTACAG,0.047
12,AAGGTCAC,-0.254
13,CCTGCTGA,-0.083
14,CCCCTCTA,-0.23
15,TCAGAAAA,0.0444
16,AGGGGGAA,-0.101
17,AATCTAGT,0.178
18,CGTTCACA,0.0405
19,CTCAGCAG,-0.228
20,AAGGTTGA,0.0981
21,CCGAACAA,0.267
22,CACCAGGA,-0.152

row,Sequence,PBM E-score
1,TACGGTGA,0.0809
2,CGCCCTCC,-0.232
3,AGCGGGCC,-0.119
4,CTCTGCCC,-0.143
5,AAGGACTA,-0.0436
6,GCCAGGGC,-0.417
7,CGAGGGGC,-0.398
8,CCCACTCG,-0.122
9,ACCTTTCC,0.0149
10,ATTAGTTC,0.22
11,TAGGCTGA,-0.137
12,AAAAGTTG,-0.0184
13,TAGGGCCA,-0.256
14,ACCGTCAG,-0.146
15,CAAACTCA,0.0357
16,CGCCAATC,-0.0275
17,CGCAGGAC,-0.147
18,CATATATG,0.0281
19,TACTTGGA,0.128
20,ATACAGCA,0.109
21,CAGCCGGG,-0.121
